Measured values: PubChem BioAssay AID1508642 (National Center for Advancing Translational Sciences (NCATS), 2021)
Out of some 43,000 compounds screened, about 200 (0.47%) were called active. Inconclusive means that the source gave no clear call. Such entries were picked first, then a sample of the others. The call rests on the fitted dose curve; in most records, active means well fitted cell-killing curve with a large enough effect; inconclusive means small, poorly fitted or top-dose-only effect, or effect the other way; inactive means flat fitted curve, though single readings scatter. Potencies beside an inconclusive call are fits to weak or partial responses and may not hold up.

experiment: Cell viability qHTS assay in S16 Pmp22-F2sN cells; conditions: S16 Pmp22-F2sN Schwann cells (luciferase reporters placed in the Pmp22 gene) viability, CellTiter-Glo, 24 h; series mostly up to 57.5 µM; further: nearly all actives have a fitted effect of over 65% in size
Method in brief: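 Seed 500-1,000 S16 Pmp22-F2sN cells per well in phenol-red-free DMEM with 10% heat-inactivated FBS; pin-add 23 nL compound; incubate 24 h at 37C; add CellTiter-Glo, wait 15 min protected from light; read luminescence.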
Potency means the concentration at half of the fitted maximal effect; tags describe the fitted curve by direction and shape.

Structure (SMILES) | Potency
Cc1cccc(N2CCN(C(=O)c3ccc(NC(=O)c4nsc5ccccc45)cc3)CC2)c1C | inconclusive: 28.2 µM [cytotoxic, partial curve, poor fit]
COc1ccc2[nH]cc(CCNC(=O)c3cnn(-c4ccccc4Cl)c3C3CCN(C(=O)OC(C)(C)C)CC3)c2c1 | inconclusive: 20 µM [cytotoxic, partial curve, poor fit]
COc1ccc(-n2ncc(C(=O)Nc3ccc4c(c3)OCCO4)c2C2CCN(C(=O)OC(C)(C)C)CC2)cc1 | inconclusive: 39.8 µM [cytotoxic, single point]
CCOc1ccc(CNC(=O)C2CCCN(S(=O)(=O)N(CC)c3ccc(OCC)cc3)C2)cc1 (stereo not drawn) | inconclusive: 39.8 µM [cytotoxic, partial curve, poor fit]
Cc1ccc(Nc2sc(C(=O)c3ccccc3)c(N)c2S(=O)(=O)c2ccccc2)c(C)c1 | inconclusive: 31.6 µM [cytotoxic, single point]
Cc1cc(C)cc(NC(=O)CN2C(=O)CCc3cc(S(=O)(=O)N4CCCCC4)ccc32)c1 | inconclusive: 39.8 µM [cytotoxic, single point]
O=C(NCCc1ccccc1)c1ccc2c(c1)CCN2S(=O)(=O)c1ccccc1 | inconclusive: 31.6 µM [cytotoxic, single point]
CC(C)CCNC(=O)c1cn(C)c2ccc(S(=O)(=O)N3CCOCC3)cc2c1=O | inconclusive: 17.8 µM [cytotoxic, partial curve, poor fit]
CCCN1CCN(CCCNC(=O)Cn2c(-c3cccs3)cc3cc(Cl)ccc32)CC1 | inconclusive: 28.2 µM [cytotoxic, single point]
CC(=O)Nc1cccc(NC(=O)C(=O)NCCc2csc3nc(-c4ccccc4F)nn23)c1 | inactive
CCOC(=O)c1ccccc1NC(=O)c1nn(C)c2c1COc1ccccc1-2 | inactive
COc1cc(OC)c(NC(=O)c2c3c(nc4ccccc24)C(=O)N(C2CCCCC2)C3)cc1Cl | active: 25.1 µM
Cc1cc(C)c(Cn2c3ccccc3c3cnn(CC(=O)NCC(C)c4ccccc4)c(=O)c32)c(C)c1 (stereo not drawn) | inconclusive: 31.6 µM [cytotoxic, single point]
COc1ccc(-n2c(CCC(=O)O)ccc2-c2ccccc2)c(OC)c1 | inconclusive: 39.8 µM [cytotoxic, single point]
CCn1cc(C(=O)NCc2ccc(F)cc2)c(=O)c2cc(S(=O)(=O)N(C)C)ccc21 | inconclusive: 2.82 µM [cytotoxic, full curve]
COc1ccc(NC(=O)c2oc3ccc(S(=O)(=O)N4CCC5(CC4)OCCO5)cc3c2C)cc1Cl | inconclusive: 17.8 µM [cytotoxic, partial curve, poor fit]
COc1ccccc1CNC(=O)c1cc2ccc3ccc(C)[nH]c3c2n1 | inconclusive: 39.8 µM [cytotoxic, single point]
Cc1cccc(-n2cnc3cc(C(=O)NC4CCCCCC4)ccc32)c1 | inconclusive: 31.6 µM [cytotoxic, single point]
COc1cccc(-c2ccc3c(N)c(C(=O)Nc4ccccc4C)sc3n2)c1 | inconclusive: 31.6 µM [cytotoxic, single point]
CC(C)CCNC(=O)c1ccc2c(c1)nc1n2CCCCC1 | inactive

Structure (SMILES) | Potency
CCOc1ccc(NC(=O)CN(C)S(=O)(=O)c2ccc3[nH]c4c(c3c2)CCCC4)cc1 | inconclusive: 20 µM [cytotoxic, partial curve]
COc1ccc(C(=O)N2CCN(c3nc4c(C)c(Cl)ccc4s3)CC2)c(OC)c1 | inconclusive: 10 µM [cytotoxic, partial curve]
COc1ccc(CCNC(=O)C(=O)NCC(c2cccnc2)N2CCN(c3ccccc3)CC2)cc1 (stereo not drawn) | inconclusive: 20 µM [cytotoxic, partial curve]
CCC(C(=O)NCCc1ccc(Cl)cc1)n1ccc2cc(S(=O)(=O)N3CCCCC3)ccc21 (stereo not drawn) | inconclusive: 39.8 µM [cytotoxic, single point]
Cc1ccc(NC(=O)C2CCCN(S(=O)(=O)c3ccc4c(c3)CCCC(=O)N4)C2)cc1Cl (stereo not drawn) | inactive
COc1cc(OC)c(OC)cc1/C=C/c1nc2ccccc2c(=O)n1-c1ccc(Br)c(C)c1 | inconclusive: 4.47 µM [cytotoxic, partial curve, poor fit]
CCOc1ccc2c(c1)c(=O)c(C(=O)c1ccccc1)cn2Cc1ccccc1 | inconclusive: 39.8 µM [cytotoxic, single point]
Cc1ccc(C(=O)Nc2c(C(=O)NC(C)(C)C)oc3ccccc23)cc1 | inactive
Cc1cccc(N2C(=O)N(Cc3cc(=O)n4ccccc4n3)c3ccccc3S2(=O)=O)c1 | inconclusive: 0.0891 µM [cytotoxic, full curve, poor fit]
CCCS(=O)(=O)c1nc(S(=O)(=O)c2ccc(C)cc2)c(N(CC)CC)s1 | inactive
CCOC(=O)c1ccc(NC(=O)CSc2c(C(C)C)cnc3c2c(=O)n(C)c(=O)n3C)cc1 | inactive
CCOc1ccc2nc(N3CCN(C(=O)c4ccc5c(c4)CCCC5)CC3)sc2c1 | inconclusive: 28.2 µM [cytotoxic, single point]
CC1CCC(NC(=O)c2ccc3c(c2)N(Cc2ccccc2F)C(=O)c2ccccc2S3=O)CC1 (stereo not drawn) | inconclusive: 0.708 µM [rising, full curve, poor fit]
CCn1cc2nc(SCc3ccccc3Cl)n(CCc3ccccc3)c(=O)c2n1 | inconclusive: 39.8 µM [cytotoxic, single point]
CCOC(=O)N1CCC(NC(=O)c2ccc3c(c2)N(Cc2ccccc2)C(=O)c2ccccc2S3=O)CC1 (stereo not drawn) | inconclusive: 0.891 µM [rising, full curve, poor fit]
COc1cc(NC(=O)c2ccc(-c3nc(COc4ccccc4)c(C)o3)cc2)cc(OC)c1 | inactive
Cc1ccc(-c2nc(CS(=O)(=O)CC(=O)N3CCN(c4cccc(C)c4C)CC3)c(C)o2)cc1 | inconclusive: 31.6 µM [cytotoxic, partial curve, poor fit]
CC1CCN(S(=O)(=O)c2ccc3c(c2)oc(=O)n3CC(=O)NC(C)c2ccccc2)CC1 (stereo not drawn) | inconclusive: 11.2 µM [cytotoxic, partial curve, poor fit]
CCOC(=O)c1cnc2ccc(OC)cc2c1NCCc1ccc(OC)c(OC)c1 | inconclusive: 39.8 µM [cytotoxic, single point]
CCOC(=O)c1c(C)[nH]c(C)c1S(=O)(=O)N1CCCC(C(=O)Nc2ccccc2OCC)C1 (stereo not drawn) | inconclusive: 39.8 µM [cytotoxic, single point]

Structure (SMILES) | Potency
CCN(CC)CCOC(=O)c1ccc(NC(=O)Cn2ncc3c([nH]c4ccc(C)cc43)c2=O)cc1 | inconclusive: 28.2 µM [cytotoxic, single point]
COCCCNC(=O)CSC1=Nc2ccccc2C2=NC(CCC(=O)NCc3ccccc3OC)C(=O)N12 (stereo not drawn) | inconclusive: 28.2 µM [cytotoxic, partial curve, poor fit]
CCn1c(=O)c2cc(C(=O)N(CCN(C)C)Cc3ccccc3)sc2c2ccccc21 | inconclusive: 7.08 µM [rising, single point]
CCc1cccc(OCC(=O)Nc2ccc(S(=O)(=O)Nc3cc(C)nc(C)n3)cc2)c1 | inconclusive: 39.8 µM [cytotoxic, single point]
CCCCOc1ccc(C(=O)Nc2nnc3n2CCS3)cc1 | inconclusive: 39.8 µM [cytotoxic, single point]
Cc1ccc(-c2nnc(Nc3ccc(O)cc3)c3ccccc23)cc1S(=O)(=O)N1CCN(C)CC1 | inconclusive: 39.8 µM [cytotoxic, single point]
CCOC(=O)c1[nH]c2c(c1Cc1ccccc1)C(=O)CC(c1ccc(Cl)cc1)C2 (stereo not drawn) | inconclusive: 39.8 µM [cytotoxic, single point]
Cc1ccc(-c2nc3scc(CCNC(=O)Cc4ccc(Cl)cc4)n3n2)cc1 | inconclusive: 35.5 µM [cytotoxic, single point]
CCN(CC)c1ccc(NS(=O)(=O)c2ccc(-c3cnc(C4CC4)o3)cc2)c(C)c1 | active: 1.78 µM
CCC1CN(C(=O)N2CCC(C(=O)NCCc3ccc(Cl)cc3)CC2)c2ccccc2O1 (stereo not drawn) | inconclusive: 28.2 µM [cytotoxic, single point]
CCOC(=O)c1c(NC(=O)c2ccc(S(=O)(=O)N3CCC(C)CC3)cc2)sc2c1CCN(C)C2 | inconclusive: 39.8 µM [cytotoxic, single point]
CC(C)c1cnc2c(c1SCC(=O)Nc1ccccc1C(F)(F)F)c(=O)n(C)c(=O)n2C | inactive
CCCNc1ncnc2onc(C)c12 | inconclusive: 7.08 µM [cytotoxic, partial curve, poor fit]
Cc1nnc(SCc2ccc(Cl)cc2)c2cc3occc3n12 | inconclusive: 22.4 µM [cytotoxic, partial curve, poor fit]
CCOc1c(Cl)cc(Cl)cc1CNCCSc1nnnn1C | inconclusive: 39.8 µM [cytotoxic, partial curve, poor fit]
CC(C)Oc1ccc(CNC(=O)CN2C(=O)CCc3cc(S(=O)(=O)N4CCCCC4)ccc32)cc1 | inconclusive: 39.8 µM [cytotoxic, single point]
COCCn1ccc2c(OCC(=O)Nc3cccc(OC)c3)cccc2c1=O | inconclusive: 28.2 µM [cytotoxic, single point]
COc1cc(NC(=O)CCc2nc(-c3cccs3)no2)cc(OC)c1OC | inconclusive: 17.8 µM [cytotoxic, single point]
